Data as given in PubChem BioAssay AID485294 (National Center for Advancing Translational Sciences (NCATS), 2010).
The campaign covered roughly 370,000 compounds. About 150 (0.041%) were called active. The shares of active, inactive and inconclusive entries below differ from those in the screen. Calls follow the shape of the dose curve; as a rule, active = well fitted inhibition curve with a large enough effect; inconclusive = small, poorly fitted or top-dose-only effect; inactive = flat fitted curve, though single readings scatter. No potency is given beside an inconclusive call; the fits are too rough.
Also: nearly all actives have a fitted effect of over 25% in size.
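For activity change, negative = inhibition in this document: 0% = no-compound wells and -100% = no-enzyme wells.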
Potency is read from the fitted curve at half-maximal effect; tags tell the direction and shape of the fitted curve.

These molecules were tested against Beta-lactamase (Escherichia coli (strain K12)) (UniProt P00811) (assay: qHTS Inhibitors of AmpC Beta-Lactamase (assay with detergent)). Details: AmpC hydrolysis of nitrocefin, absorbance 480 nm, 0.01% Triton; activity change, negative = inhibition: at 114 µM (top of the series).
Sequence of UniProt P00811 (P00811 whole entry, looked up): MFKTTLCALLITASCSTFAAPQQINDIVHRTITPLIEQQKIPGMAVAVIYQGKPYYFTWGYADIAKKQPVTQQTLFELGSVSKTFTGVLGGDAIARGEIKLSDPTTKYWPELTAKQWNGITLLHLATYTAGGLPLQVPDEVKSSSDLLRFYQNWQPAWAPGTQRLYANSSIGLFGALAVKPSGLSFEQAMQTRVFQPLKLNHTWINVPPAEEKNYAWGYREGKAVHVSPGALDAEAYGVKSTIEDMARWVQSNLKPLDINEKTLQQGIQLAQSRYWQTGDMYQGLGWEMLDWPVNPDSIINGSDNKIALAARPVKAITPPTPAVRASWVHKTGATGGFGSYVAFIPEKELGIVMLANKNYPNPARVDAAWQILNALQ
Procedure, shortened: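 AmpC (5.3 nM in the dispensed reagent) in 20 mM phosphate pH 7.0 with 0.01% (detergent screen) or 0.0001% Triton X-100 was preincubated with compounds for 15 min at room temperature. Nitrocefin was then added from an 800 uM solution, and hydrolysis was followed at 480 nm.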
With CCOc1ccc2ncc3c(-c4cccc(OC)c4)nn(-c4ccccc4)c3c2c1 the Potency was inconclusive [inhibitor, full curve, poor fit]. O=C(Nc1ccc(S(=O)(=O)N2CCc3ccccc32)cc1)c1ccco1 was tested, and the “activity change, negative = inhibition” value was inactive: -9.82%. COc1ccc2occ(C(C)=O)c2c1 was tested, and the Potency was inconclusive [inhibitor, partial curve]. In the case of COc1ccccc1C1=NOC(C)(c2nnc(Cc3ccccc3)o2)C1 (stereo not drawn), the Potency is reported as inconclusive [inhibitor, full curve]. CC(=O)/C(C#N)=C1\NC(=O)C(Cc2ccccc2)S1 (stereo not drawn) was tested, and the “activity change, negative = inhibition” value was inactive: 2.96%. With Cc1cc(Cl)ccc1OCC(=O)N1CC(C)CC(C)C1 (stereo not drawn) the Potency was inconclusive [inhibitor, full curve, poor fit]. With COc1cc2c(cc1OC)C(C(=O)Nc1cc(OC)c(OC)c(OC)c1)C(c1cccnc1)N(C)C2=O (stereo not drawn) the Potency was inconclusive [inhibitor, single point]. COc1ccc(C(c2nnnn2CC2CCCO2)N2CCN(c3cccc(C)c3C)CC2)cc1 (stereo not drawn) was tested, and the Potency was inconclusive [inhibitor, full curve, poor fit]. CCC(C)Sc1ccc([C@H]2N[C@@](Cc3ccccc3)(C(=O)OC)[C@H]3C(=O)N(CC)C(=O)[C@@H]23)cc1 (stereo partly drawn) was tested, and the “activity change, negative = inhibition” value was inactive: -7.08%. COCCNc1ncnc2nc[nH]c12 was tested, and the Potency was inconclusive [inhibitor, partial curve, poor fit]. In the case of CCCCn1c(SCC(=O)NC2CCCC2)nc2ccccc2c1=O, the Potency is reported as inconclusive [inhibitor, full curve, poor fit]. Cc1ccc(/C=N/NC(=O)CNC(=O)COc2ccccc2)cc1 was tested, and the Potency was inconclusive [inhibitor, partial curve, poor fit]. With O=C1CSC(=Nc2ccccc2Cl)N1 the “activity change, negative = inhibition” value was inactive: -15%. Cc1ccc(C)c(N(CC(=O)NCc2ccco2)C(=O)CCC(=O)Nc2nccs2)c1 was tested, and the Potency was inconclusive [inhibitor, full curve, poor fit]. CCCCCn1cc2c(c1-c1ccccc1Br)c(=O)n(C)c(=O)n2C was tested, and the “activity change, negative = inhibition” value was inactive: 25%. With O=S(=O)(c1ccccc1)c1nnn2c1nc(NCc1ccccc1)c1cc(Cl)ccc12 the Potency was inconclusive [inhibitor, single point]. In the case of CCOC(=O)c1c(NC(=S)Nc2cc([N+](=O)[O-])ccc2OC)sc2c1CCCCC2, the Potency is reported as inconclusive [inhibitor, partial curve]. With COCC(=O)Nc1nnc(C2CCCCC2)s1 the Potency was inconclusive [inhibitor, full curve, poor fit]. For CC12OC1C1(O)CCCC1=CC2=O (stereo not drawn), the Potency was inconclusive [inhibitor, full curve, poor fit]. In the case of CCC(=O)Nc1cccc(NC(=O)CSc2nnc(C(C)C)n2CC)c1, the Potency is reported as inconclusive [inhibitor, full curve, poor fit]. COc1cc(C(=O)NCc2ccc(C)cc2)ccc1OCc1c(C)noc1C was tested, and the Potency was inconclusive [inhibitor, full curve, poor fit]. For CCOc1ccc(NC(=O)CN(C)C(=O)C2CCCO2)cc1OCC (stereo not drawn), the “activity change, negative = inhibition” value was inactive: -12.7%. For CCOc1cc(-c2noc(-c3ccncc3)n2)cc(Br)c1OC, the Potency was inconclusive [inhibitor, partial curve]. For Cc1c(NC(=O)c2cnn3c2NC(c2ccccc2)CC3C(F)(F)F)c(=O)n(-c2ccccc2)n1C (stereo not drawn), the Potency was inconclusive [inhibitor, full curve, poor fit]. For CCOCCCNC(=O)N[C@@H](Cc1ccccc1)C(=O)OC, the Potency was inconclusive [inhibitor, full curve, poor fit]. With Cc1c(C=C2C(=O)NC(=O)NC2=O)c(=O)n(-c2ccccc2)n1C the Potency was inconclusive [inhibitor, full curve, poor fit]. For COc1ccc(OC)c(CCNC(=O)CS(=O)(=O)Cc2nc(-c3ccc(C)cc3)oc2C)c1, the Potency was inconclusive [inhibitor, full curve, poor fit]. For O=C(NCCc1ccccc1)c1ccc(Cl)cc1[N+](=O)[O-], the “activity change, negative = inhibition” value was inactive: -10.6%. COc1ccc(CCNC(=O)Cn2cc(S(=O)(=O)Cc3ccc(F)cc3)c3ccccc32)cc1OC was tested, and the “activity change, negative = inhibition” value was inactive: 16.2%. In the case of Cn1c(=S)n(/N=C/c2ccc3c(c2)OCO3)c2ccccc21, the Potency is reported as inconclusive [inhibitor, partial curve, poor fit]. In the case of COc1ccccc1-n1cnnc1SCC(=O)c1c[nH]c2ccccc12, the Potency is reported as inconclusive [inhibitor, partial curve, poor fit]. For CCOc1ccccc1NC(=O)C1CCCN1S(=O)(=O)c1ccc2nc(-c3ccccc3)[nH]c2c1 (stereo not drawn), the “activity change, negative = inhibition” value was inactive: -2.76%. COc1ccc(-c2csc(NC(=O)COC(=O)c3ccco3)n2)cc1 was tested, and the “activity change, negative = inhibition” value was inactive: -10.1%. CCOc1ccc(-n2ccnc(SCC(=O)Nc3ccc(OC)cc3OC)c2=O)cc1 was tested, and the “activity change, negative = inhibition” value was inactive: 2.81%. In the case of Cc1cc2c(cc1C)-c1nnnn1C(C)(C)C2, the Potency is reported as inconclusive [inhibitor, full curve]. For C[C@H](NC(=O)C1CC(=O)N(c2ccc(F)cc2)C1)C(=O)N1CCCCC1 (stereo partly drawn), the Potency was inconclusive [inhibitor, full curve, poor fit]. With O=C(Nc1ccc(F)cc1F)N1CCCCCC1 the Potency was inconclusive [inhibitor, full curve]. With CC(NC(=O)NCCCn1ccnc1)(C(F)(F)F)C(F)(F)F the “activity change, negative = inhibition” value was inactive: -15%. In the case of Cc1onc(-c2ccccc2Cl)c1C(=O)Nc1sc2c(c1C(N)=O)CCC(C)C2 (stereo not drawn), the “activity change, negative = inhibition” value is reported as inactive: -6.98%. For CCCN1CCN(C(=O)CCCNC(=O)c2ccc(Cl)cc2)CC1, the Potency was inconclusive [inhibitor, full curve, poor fit]. For COc1ccc(CCn2c(-c3ccco3)nc3nc4ccccc4nc32)cc1OC, the Potency was inconclusive [inhibitor, partial curve]. In the case of CC(C)Nc1nc(NC(C)C)nc(N(C)C#N)n1, the Potency is reported as inconclusive [inhibitor, full curve, poor fit]. With CC(=O)c1cccc(NC(=O)c2onc(C)c2Cl)c1 the “activity change, negative = inhibition” value was inactive: 4.71%. CC(NC(=O)Nc1ccc([N+](=O)[O-])cc1)C(c1ccccc1)N1CCOCC1 (stereo not drawn) was tested, and the “activity change, negative = inhibition” value was inactive: -1.77%. CCc1ccc(NC(=O)C2=CC(c3cccs3)=NS(=O)(=O)N2C)cc1 was tested, and the Potency was “inactive”. With O=C(c1ccc(F)cc1)c1c[nH]c(C(=O)NCc2cccnc2)c1 the Potency was inconclusive [inhibitor, full curve, poor fit]. For Cc1nnc(SCc2nc3ccccc3s2)n1-c1ccccc1, the Potency was inconclusive [inhibitor, full curve, poor fit]. In the case of COC(=O)c1ccc(C)c(NC(=O)COC(=O)C2CC3CCCC(C2)C3=O)c1 (stereo not drawn), the Potency is reported as inconclusive [inhibitor, full curve, poor fit]. For O=C(Nc1ccc(C(O)(C(F)(F)F)C(F)(F)F)cc1)c1ccc(Cl)c([N+](=O)[O-])c1, the “activity change, negative = inhibition” value was inactive: -7.31%. With CSCCC(NC(N)=O)C(=O)NCc1cccc(Cl)c1 (stereo not drawn) the Potency was inconclusive [inhibitor, single point]. With c1ccc2c(c1)OCC(CNCC1COc3ccccc3O1)O2 (stereo not drawn) the Potency was inconclusive [inhibitor, full curve, poor fit]. With N#C/C(=C\c1cccnc1)c1ccc([N+](=O)[O-])cc1 the Potency was inconclusive [inhibitor, full curve, poor fit]. With COc1ccccc1CCNS(=O)(=O)c1c(C)n(C)c(=O)n(C)c1=O the Potency was inconclusive [inhibitor, full curve]. With CCCCC1(C(=O)OC)NC(c2ccc(O)cc2)C2C(=O)N(c3ccccc3)C(=O)C21 (stereo not drawn) the Potency was inconclusive [inhibitor, full curve, poor fit]. In the case of CN1C(=O)c2cccc(NCCCN3C(=O)c4ccccc4C3=O)c2C1=O, the “activity change, negative = inhibition” value is reported as inactive: -6.11%. In the case of O=C1C(=O)N(C2CCN(C(=O)c3ccccc3F)CC2)CCN1Cc1ccc(F)cc1, the “activity change, negative = inhibition” value is reported as inactive: 1.18%. In the case of CCOc1ccc(C2C(C(=O)c3ccc(C)o3)=C(O)C(=O)N2CCN2CCOCC2)cc1OC (stereo not drawn), the “activity change, negative = inhibition” value is reported as inactive: -23.8%. For CCN(CC)C(=O)c1ccc(/C=C/c2c[nH]c3ccccc23)[n+](C)c1, the Potency was inconclusive [inhibitor, partial curve]. In the case of Cc1ccc(S(=O)(=O)NC(=O)Nc2ccccc2F)cc1, the Potency is reported as inconclusive [inhibitor, full curve, poor fit]. O=C(O)c1cn(Cc2cccnc2)c(=O)c2ccccc12 was tested, and the Potency was inconclusive [inhibitor, full curve, poor fit]. For COc1cc(C(=O)OCC(C)=O)ccc1OCc1c(C)noc1C, the Potency was inconclusive [inhibitor, full curve, poor fit]. With CC(C)c1ccc(OCC(=O)NN2C(=O)c3ccccc3C2=O)c(Br)c1 the Potency was inconclusive [inhibitor, full curve, poor fit]. COC(=O)c1sc2nc(SCC(=O)N(C)c3ccccc3)n(N)c(=O)c2c1C was tested, and the “activity change, negative = inhibition” value was inactive: 1.19%. CCCCn1c(=O)cc(N2CCOCC2)[nH]c1=O was tested, and the Potency was inconclusive [inhibitor, full curve, poor fit]. In the case of CCn1c(C(=O)OC)cc2c1ccn2-c1ccc(F)cc1, the “activity change, negative = inhibition” value is reported as inactive: 2.5%. In the case of COc1ccccc1NC(=O)CCCc1nc(-c2ccc(OC)c(OC)c2)no1, the Potency is reported as inconclusive [inhibitor, full curve]. O=C(O)C1CCCCC1C(=O)NCc1cn2ccccc2n1 (stereo not drawn) was tested, and the Potency was inconclusive [inhibitor, full curve]. CCn1c(SCC(=O)N(C)CCC#N)nc2cc(S(=O)(=O)N3CCOCC3)ccc21 was tested, and the “activity change, negative = inhibition” value was inactive: -15.9%.
